# Measurements: the supplement of paper PMC8728848
# Some of the results follow.
# B1: Mg3lysM (Mycosphaerella graminicola) (protein)
# chain: APQNPPTSCSAAPQPTGTGSPGTVCGSTTFTNYTVKAGDTLGAIAKQYNSGVCDIAKVNGIDNPDYIKPDQVLSIPANCVTPDNTSCVKPVPVITNTCVLGVGSTYTVKSGDSFSAIATSFNITLASLEARNPQIPNYDLIFPGQVINTPLCPNSVCDSIGTYVIESGDIFYNLAQSNNVTVGQLESLNVNVNVTDIHPGDIIILPHNCHNITASA
# Legend:
# Assay in all cases: glycan array binding signal (z-score within array); higher = stronger binding
# Conditions in all cases: glycan notation: IUPAC condensed, linker removed
# [1] = biological target: Neu5Ac(a2-3)Gal(b1-4)GlcNAc(b1-6)GalNAc
# How it was run: (§1)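 The binding signal is a Z-score computed within each array and averaged over linkers. Arrays of the same protein sequence at different concentrations or buffers were also averaged together. Data originate from 3228 arrays in the Consortium for Functional Glycomics database, kept only where the protein sequence was available.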
# [2] = biological target: Neu5Ac(a2-3)Gal(b1-4)GlcNAc(b1-6)[Gal(b1-3)]GalNAc
# How it was run: as §1
# [3] = biological target: Neu5Ac(a2-3)Gal(b1-4)GlcNAc(b1-6)[Neu5Ac(a2-3)Gal(b1-3)]GalNAc
# How it was run: as §1
# [4] = biological target: Neu5Ac(a2-3)Gal(b1-4)GlcNAc6S
# How it was run: as §1
# [5] = biological target: Neu5Ac(a2-3)Gal(b1-4)[Fuc(a1-3)]GlcNAc
# How it was run: as §1
# [6] = biological target: Neu5Ac(a2-3)Gal(b1-4)[Fuc(a1-3)]GlcNAc(b1-2)Man
# How it was run: as §1
# [7] = biological target: Neu5Ac(a2-3)Gal(b1-4)[Fuc(a1-3)]GlcNAc(b1-3)Gal
# How it was run: as §1
# [8] = biological target: Neu5Ac(a2-3)Gal(b1-4)[Fuc(a1-3)]GlcNAc(b1-3)Gal(b1-4)GlcNAc
# How it was run: as §1
# [9] = biological target: Neu5Ac(a2-3)Gal(b1-4)[Fuc(a1-3)]GlcNAc(b1-3)Gal(b1-4)[Fuc(a1-3)]GlcNAc(b1-3)Gal(b1-4)[Fuc(a1-3)]GlcNAc
# How it was run: as §1
# [10] = biological target: Neu5Ac(a2-3)Gal(b1-4)[Fuc(a1-3)]GlcNAc(b1-3)GalNAc
# How it was run: as §1
# [11] = biological target: Neu5Ac(a2-3)Gal(b1-4)[Fuc(a1-3)]GlcNAc(b1-6)[Gal(b1-3)]GalNAc
# How it was run: as §1
# [12] = biological target: Neu5Ac(a2-3)Gal(b1-4)[Fuc(a1-3)]GlcNAc(b1-6)[Neu5Ac(a2-3)Gal(b1-3)]GalNAc
# How it was run: as §1
# [13] = biological target: Neu5Ac(a2-3)Gal(b1-4)[Fuc(a1-3)]GlcNAc6S
# How it was run: as §1
# [14] = biological target: Neu5Ac(a2-3)Gal6S(b1-4)GlcNAc
# How it was run: as §1
# [15] = biological target: Neu5Ac(a2-3)Gal6S(b1-4)[Fuc(a1-3)]GlcNAc
# How it was run: as §1
# Neu5Ac(a2-3)GalNAc = biological target: Neu5Ac(a2-3)GalNAc
# How it was run: as §1
# [16] = biological target: Neu5Ac(a2-3)GalNAc(b1-4)GlcNAc
# How it was run: as §1
# [17] = biological target: Neu5Ac(a2-3)[GalNAc(b1-4)]Gal(b1-4)Glc
# How it was run: as §1
# [18] = biological target: Neu5Ac(a2-3)[GalNAc(b1-4)]Gal(b1-4)GlcNAc
# How it was run: as §1
# [19] = biological target: Neu5Ac(a2-3)[GalNAc(b1-4)]Gal(b1-4)GlcNAc(b1-3)GalNAc
# How it was run: as §1
# [20] = biological target: Neu5Ac(a2-3)[Neu5Ac(a2-6)]GalNAc
# How it was run: as §1
# Neu5Ac(a2-6)Gal = biological target: Neu5Ac(a2-6)Gal
# How it was run: as §1
# [21] = biological target: Neu5Ac(a2-6)Gal(b1-3)GlcNAc(b1-3)[Gal(b1-4)GlcNAc(b1-6)]Gal(b1-4)Glc
# How it was run: as §1
# Neu5Ac(a2-6)Gal(b1-4)Glc = biological target: Neu5Ac(a2-6)Gal(b1-4)Glc
# How it was run: as §1
# [22] = biological target: Neu5Ac(a2-6)Gal(b1-4)GlcNAc
# How it was run: as §1
# [23] = biological target: Neu5Ac(a2-6)Gal(b1-4)GlcNAc(b1-2)Man
# How it was run: as §1
# [24] = biological target: Neu5Ac(a2-6)Gal(b1-4)GlcNAc(b1-2)Man(a1-3)Man(b1-4)GlcNAc(b1-4)GlcNAc
# How it was run: as §1
# [25] = biological target: Neu5Ac(a2-6)Gal(b1-4)GlcNAc(b1-2)Man(a1-3)[Gal(b1-4)GlcNAc(b1-2)Man(a1-6)]Man(b1-4)GlcNAc(b1-4)GlcNAc
# How it was run: as §1
# [26] = biological target: Neu5Ac(a2-6)Gal(b1-4)GlcNAc(b1-2)Man(a1-3)[GlcNAc(b1-2)Man(a1-6)]Man(b1-4)GlcNAc(b1-4)GlcNAc
# How it was run: as §1
# [27] = biological target: Neu5Ac(a2-6)Gal(b1-4)GlcNAc(b1-2)Man(a1-3)[GlcNAc(b1-4)][Neu5Ac(a2-6)Gal(b1-4)GlcNAc(b1-2)Man(a1-6)]Man(b1-4)GlcNAc(b1-4)GlcNAc
# How it was run: as §1
# [28] = biological target: Neu5Ac(a2-6)Gal(b1-4)GlcNAc(b1-2)Man(a1-3)[Man(a1-6)]Man(b1-4)GlcNAc(b1-4)GlcNAc
# How it was run: as §1
binder,measurement,setting,value
B1,glycan array binding signal (z-score),[1],-0.052
same,glycan array binding signal (z-score),[2],-0.065
same,glycan array binding signal (z-score),[3],-0.086
same,glycan array binding signal (z-score),[4],-0.041
same,glycan array binding signal (z-score),[5],-0.145
same,glycan array binding signal (z-score),[6],-0.082
same,glycan array binding signal (z-score),[7],-0.101
same,glycan array binding signal (z-score),[8],-0.053
same,glycan array binding signal (z-score),[9],-0.121
same,glycan array binding signal (z-score),[10],0.019
same,glycan array binding signal (z-score),[11],-0.035
same,glycan array binding signal (z-score),[12],-0.033
same,glycan array binding signal (z-score),[13],0.04
same,glycan array binding signal (z-score),[14],-0.017
same,glycan array binding signal (z-score),[15],-0.14
same,glycan array binding signal (z-score),Neu5Ac(a2-3)GalNAc,-0.136
same,glycan array binding signal (z-score),[16],-0.065
same,glycan array binding signal (z-score),[17],-0.076
same,glycan array binding signal (z-score),[18],-0.088
same,glycan array binding signal (z-score),[19],-0.092
same,glycan array binding signal (z-score),[20],-0.068
same,glycan array binding signal (z-score),Neu5Ac(a2-6)Gal,-0.083
same,glycan array binding signal (z-score),[21],-0.064
same,glycan array binding signal (z-score),Neu5Ac(a2-6)Gal(b1-4)Glc,-0.086
same,glycan array binding signal (z-score),[22],-0.067
same,glycan array binding signal (z-score),[23],-0.092
same,glycan array binding signal (z-score),[24],0.073
same,glycan array binding signal (z-score),[25],-0.044
same,glycan array binding signal (z-score),[26],-0.094
same,glycan array binding signal (z-score),[27],-0.067
same,glycan array binding signal (z-score),[28],-0.067
